B1: LINE1-full (parent)
chain: UACGUAGGUGGUUUUCCCCUGAUAGUGCUAAGGGGGCCUGGAAGUUUGGACUGGGCAGAGCUCAACACAGCGUGGCAAAGUGGCUGUGGCUAGACUGCCUCUCUGGAUUCCUCGUCACUCAGCAGGGCAUCUCUGAGAGAAAUGCC

Among the data in the RNAGym collection of RNA variant scans (doi:10.7554/elife.90254) are self-cleavage values, retold here.

The source gives no read counts; variants with many changes may rest on few reads.

The series covers variants of B1. The series is described as follows: self-cleavage, relative activity (ratio to wild type); higher = more cleavage; in vitro, sequencing; the parent is a self-cleaving ribozyme.
As to U15A A30U C37A U108A, the self-cleavage was 1.97.
The figure for A22G A30G A42U U52A A77U A117G is 0.29; for U26C G53A G105A it is 1.34.
As to A42G A78U A121G, the self-cleavage is 1.71.
The figure for U62C C66U U100C is 0.11; for U23C G49U A59G A140G A142G it is 0.14.
For U62C A69C U87A the value was 0.09.
The figure for A69U U91C G105A U112C is 0.02.
On to C99U U130C A142G, for which the self-cleavage was 0.12.
Consider A65G U73C A77G, for which the self-cleavage came out at 0.
For U96C U100A A140G the value was 0; for U12A A94G U102C U134A A142G, 0.
For U14C U52C C98G U102C U104C U115A A136U the value was 0.
Turning to A50U C71U A124U, the self-cleavage was determined as 0.36.
With A6G U29C C38U A65G, the self-cleavage was found to be 0.42.
Regarding G36C C66A U73C A77G, the self-cleavage came to 0.04.
The figure for A42G U115C G144A is 2.36; for A6G C120A G144A it is 0.6; for G35A U39A U115C it is 1.2.
For A22C A64U G89A the value was 0; for U9G U45C U102C A136U, 1.91; for A77U A78C U115C, 1.45.
The figure for U47A A65G A92G U109C is 0.
For the variant U39A A129U U134A, the self-cleavage turned out to be 0.62.
Turning to U47C U108C U119A A138G, the self-cleavage is 2.78.
The figure for U39A U119C U132C is 2.07; for C19U A67G U102C it is 1.25; for U13C C68U A78G it is 0.03.
Consider U46C U62A C63U C98A U119C, for which the self-cleavage was determined as 0.01.
For U1C U12G U96A U108C A129G the value was 0; for U52C A59G U132C, 0.4.
The figure for A43U U100C U143C is 1.38; for U20C A30G U81A C103A it is 1.27.
The figure for U13C A30U C38U U87C A136G A140G is 0.35; for U20A U73C U85G G89A U104C it is 0; for U29C A30G A31U A117C A136U it is 0.
As to U14C A59G G60C C76U, the self-cleavage was determined as 0.05.
For U47A U73A A77U A107G A136G, the self-cleavage turned out to be 2.15.
Turning to U9C U15C G139C A142G, the self-cleavage was determined as 1.53.
The figure for U9A G36A G54A C68U U85A is 0.04; for U29A G83A U102C it is 0.92; for U96C U109A U115A it is 0.03.
As to U14C A43U U47A G74A U100A, the self-cleavage worked out at 0.5.
U1C U12A A121G: the self-cleavage was 0.84.
Turning to C17U U45C U143A, the self-cleavage came out at 1.23.
Turning to A50G G53U U115A, the self-cleavage was determined as 0.62.
With U13C U23C U100C A136U, the self-cleavage is 1.31.
Turning to G25U U45C A121U, the self-cleavage amounted to 1.47.
With U29A A50G C98A, the self-cleavage turned out to be 0.08.
Take U9A A24G C111U G126A U132C A141G: the self-cleavage stood at 1.01.
The figure for G35U C37U U39C A140G is 0.77; for U39C U52A A117C it is 1.23.
As for G35U G86A A94G U104C U109C, the self-cleavage worked out at 0.11.
The figure for U47C A59G C84U U143A is 0.09.
As to U39A U100C A121U, the self-cleavage came out at 1.62.
For U12G A64G U134C the value was 0.41; for A65G U73A G88U U134C, 0.01; for U46A U85A U102G, 0.08.
G54A U96A A129U: the self-cleavage worked out at 0.05.
The figure for A43G A57U C76A is 0.08.
The figure for U45C U85A A140U is 0.08; for U96C C101A A140G it is 0.08.
Take A79G U91C C101U A141U: the self-cleavage is 0.68.
The figure for A2G U62C C84U A138G is 0.24; for U47G A50G U109C A121U it is 0.44.
For G36U A50G A67G, the self-cleavage came out at 0.19.
The figure for A42C U46C A121C is 0.
For A42U A43G U52A U73C U85C U104A A140G the value was 0.54; for G54U A57G U132C, 0.24.
For U13C A30G U52A, the self-cleavage was 0.22.
For U1C U5C U39A A77G the value was 1.79; for C3U A92G U96A, 0.11.
For the variant U15C C19U A30U, the self-cleavage was 0.98.
For U62C A138G A140G, the self-cleavage turned out to be 0.14.
Turning to U81C U109A C133A, the self-cleavage worked out at 1.11.
The figure for G4A U29C A57U U108C A141G is 0.16.
The figure for C38U A69G A141G is 0.24; for U12C A92C U112A it is 0.13.
In the case of U100A G105A U115C, the self-cleavage came to 1.54.
For U9C A43U U46C the value was 0.32; for U26A A57C U96A, 0.09; for A43C U85C G127C, 0.56.
For U15A A42G U108C the value was 0.92; for C19U A31G U100C, 1.41.
Regarding U26C A77U U115C, the self-cleavage was 1.63.
For U13G A30G G49A, the self-cleavage amounted to 0.81.
U29C U87C U100A U112C A140G: the self-cleavage was determined as 0.
For the variant U87A U112C A140G, the self-cleavage worked out at 0.
G4A A30U A92G A142U: the self-cleavage stood at 0.15.
For A57G U132C A142G the value was 0.59; for A30G U85C U143C, 0.44.
Regarding U9A U15C G41U, the self-cleavage was determined as 0.82.
For A57G A117U U134C the value was 1.91.
Take U39C U81A G86A A124G U134C A138G: the self-cleavage turned out to be 0.03.
For U45C A64G U102C the value was 0.46; for U23C A50G G106U, 0.89; for G48A G93U A136G, 0.
The figure for A22G U52C A67G G75A A79G is 1.08; for C37U A64C U108A it is 0.36.
In the case of G41A C61U U96C, the self-cleavage was found to be 0.05.
For the variant A31G U91A A107G, the self-cleavage worked out at 0.34.
For the variant G8A U23A U87A, the self-cleavage is 0.05.
The figure for U45C U62A A67G U115A A141G is 0; for A50G U62C U119C it is 0.
For C3U A42U A50G U52A A69U the value was 0.07; for G44A U73C A94G, 0.65; for U29A A31U U47C A64U G74C U96C, 0.
For U45A A57G U119C U132A A141U the value was 0.
As for U12A U13C A50U A79G, the self-cleavage came to 2.3.
On to U102G G126A C128U, for which the self-cleavage is 0.38.
As to A77C A140G A141G, the self-cleavage amounted to 1.35.
For G74A U87C U104C the value was 0.21; for A43G A67U U115C, 0.22.
Turning to U15G U29C A65G U85A G122U U130A, the self-cleavage was 0.12.
A6G A50G A138G: the self-cleavage worked out at 0.
The figure for G60A A124U A140G is 0.06.
For A79G U87C A94G the value was 0; for A30U U73A C110U, 1.57; for U9A U39C G41A U130C, 2.07.
For A22G U39A C66U U104A the value was 0.11.
For U23C A31U C68U A77G, the self-cleavage turned out to be 0.25.
For U81C U96A U115A the value was 0.07; for U14C U87A A124G A129G U130C, 0.
The figure for U12C U104A U112C is 0.8.
The figure for U14C U45C G88A A121G is 0; for U46C U62C A67U U81C U119C A138G it is 0.
As to U14C A24U A77G U100A, the self-cleavage was 1.49.
Turning to U12C A42G A121C A124U, the self-cleavage is 2.4.
As to U13C U14C U115G, the self-cleavage was found to be 0.9.
For U26C G34U A65G U81C the value was 0; for A50G U52C U132A, 1.15; for U47C A94G C98U, 0.28.
With A2G U12C U15A A30U A50G G86A U100C, the self-cleavage turned out to be 0.
For A6G U13C U52A U104C A138G the value was 1.6.
The figure for U9C U81A A142G is 2.5; for U12C U45C U85C it is 0.
On to U15C A65G A136U, for which the self-cleavage came out at 0.07.
The figure for U5C A43U U52A A77U A79U is 1.13; for U13A U102C U108C A140G it is 1.15.
The figure for U9A U13C C123U is 0.73; for U14C U46A A142G it is 1.25; for U13C A22U U47C A50U U73A U81C it is 2.41.
For the variant U14C A59G A117U, the self-cleavage was 0.16.
The figure for U20C A92U U104A U115C is 0.56; for U15C U23A A31U U62C A65U A78G it is 0.13; for U47C U73G U102A it is 2.2.
For A65U A79U A136G, the self-cleavage came out at 0.24.
Consider G21U A59U U87C A124G, for which the self-cleavage came out at 0.
On to U39C A77U A78G, for which the self-cleavage is 0.72.
As to C28A G35U U134A, the self-cleavage stood at 0.57.
With A31U A64U G114A, the self-cleavage stood at 0.32.
Turning to U14A U46C A59G A94G G97A U143C, the self-cleavage amounted to 0.09.
Take U46C U73A A129C: the self-cleavage amounted to 2.3.
For A64G G83A U100C U108C C116U A136G the value was 0.3; for U13C A43G U102A, 0.57; for G8A A24G G35A A141G, 0.85.
As for U26G U39C G125A, the self-cleavage is 1.
Consider U12C G54A A59G A138G, for which the self-cleavage was determined as 0.
Take C51U U73C U87C A138G: the self-cleavage was 0.15.
The figure for G11A U13C U52A A57U A69U A77U is 0.04.
Regarding U15C U39G A57U A78G A79G, the self-cleavage amounted to 0.
Take C38U U62C U91C: the self-cleavage was found to be 0.09.
The figure for U13A U81C U100C A138G is 2.35.
The figure for U20A U45G G48U A77G U102C A124G is 0.48.
On to U46C U47G U100C A129U, for which the self-cleavage amounted to 1.84.
For G7U U108A A138C the value was 2.13; for U29C A64U A78G U112A, 0.53.
